Recombinant human monoclonal antibodies (heavy:light variable regions). ELISA EC50 on the named antigen, from 10 µg/ml down; IC50 / IC90 against spike pseudovirus on 293T-ACE2 cells, 48 h; lower = stronger. Calls: IC50 above 1,000 ng/ml = non-neutralizing; EC50 above 1,000 ng/ml = non-binder. The source prints 1000 for neutralization that was not reached; it is given as >1000 ng/ml. Only binders of the Wuhan-Hu-1 domain have neutralization values.
B1: B1078 (protein)
chain 1: QVQLVQSGAEVKKPGASVKVSCKASGYTFTSYDINWVRQATGQGLEWMGWMNPHSGNTGYARTFQGRVTVTRNTSISTAYMELSSLRSEDTAVYYCAITYEAHDILTGCLDSWGQGTLVTVSS
chain 2: SYVLTQPPSVSVAPGQTARITCGGDYIGSKNVHWYQLRPGQAPVLVVYDDSDRPSGIPERFSGSNSGNTATLTISRVEAGDEADYYCQVWDSSSDQLYVFGAGTKVTVL
B2: B1079 (protein)
chain 1: EVQLVESGGGLVQPGRSLRLSCAASGFTFDDYAMHWVRQAPGKGLEWVSGISWNSGSTGYADSVKGRFTISRDNAKNSLYLQMSSLRAEDTAFYYCAKGTIGVPLRECYFDYWGQGTLVTVSS
chain 2: QSVLTQPRSVSGSPGQSVTISCTGTSSDVGGYDYVSWYQQHPGKAPKLMIYDVSERPSGVPDRFSGSKSGNAASLTISGLQAEDEADYYCCSYAGSYLLVFGGGTKLTVL
B3: B1081 (protein)
chain 1: EVQLVESGRGLVQPGRSLRLSCAASGFTFDDYAMHWVRQAPGKGLEWVSGISWNSGSIGYVDSVKGRFTISRDNAKNTLYLQMNSLRAEDTALYYCAKGTIAVPLRECSLDYWGQGTLVTVSS
chain 2: QSVLTQPASVSGSPGQSITISCTGTSSDVGGYDYVSWYQQHPGKAPKLMIYEVSNRPSGVSNRFSGSKSGNTASLTISGLQAEDDADYYCSSYTSSITRYVFGTGTKVTVL
B4: B1082 (protein)
chain 1: QVQLVESGGGVVQPGRSLRLSCAVSGFTFSRYGMHWVRQAPGKGLEWVGVILYDGSNEYYADSVKGRFTISRDNSKNTLYLQINSLRVEDTAVYYCAKASGPYCGGGDCYSAFFDYWGQGTLVTVSS
chain 2: DIQMTQSPSTLSASVGDRVTITCRASQSISRWLAWYQQKPGKAPKVLIYEASSLESGVPSRFSGSGSGTEFTLTISSLQPDDFATYYCQQYNSYSSFGQGTKLEIK
B5: B1083 (protein)
chain 1: QVQLVESGGGVVQPGRSLRLSCAVSGFTFSRYGMHWVRQAPGKGLEWVGVILYDGSNEYYADSVKGRFTISRDNSKNTLYLQINSLRVEDTAVYYCAKASGPYCGGGDCYSAFFDYWGQGTLVTVSS
chain 2: DIQMTQSPSSLSAYVGDRVTITCQASQDISNYLHWYQQKSGKAPTLLIYDASNLQTGVPSRFRGSGSGTDFTLTISSLQPEDFATYYCQQYDNLPPTFGGGTKVEIK
B6: B1085 (protein)
chain 1: EVQLVESGGGLVQPGGSLRLSCGASGFTFSTYDMHWVRQTTETGLEWVSAIGTAGDTYYRDSVKGRFTISRENAKNSLYLQMNSLRAGDTAVYYCARGLNSDNYAVWAFDIWGQGTMVTVSS
chain 2: DIQMTQSPSSLSASVGDRVTITCRARQSIGTYLNWYQQKPGKAPKLLIHAASNLQSGVPSRFSGSGSGTDFTLTISSLQPEDFATYYCQQSYSNPPTTFGPGTKVDIK
B7: B2104 (protein)
chain 1: EVQLVQSGAEVKKPGESLKISCKGSGYMFTSSWIAWVRHMPGKGLEWMGIIHPGDSDTRYSPSFQGQVTFSADKSISTAYLQWSSLKASDTAMYYCASYGGIYHGWLDPWGQGTLVTVSS
chain 2: QSVLTQPPSASGTPGQRVTISCSGSSSNIGTNPVNWYQQLPGTAPKLLIYNNHQRPSGVPDRFSGSKSATSASLAISGLQSEDEADYYCATWDDSLNGYVFGTATKVTVL

Each binder was assayed against SARS-CoV-2 Wuhan-Hu-1 spike pseudovirus (assay: pseudovirus neutralization IC50; higher = weaker neutralization).
Experimental: (§1)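 Single-round luciferase reporter pseudovirus mixed with antibody dilutions and put on 293T-ACE2 cells for 48 h; signal relative to no-antibody wells, four-parameter fit.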
For B1, the “pseudovirus neutralization IC50” value was greater than 1 µg/mL. With B2 the “pseudovirus neutralization IC50” value was 0.025 µg/mL. B3 was tested, and the “pseudovirus neutralization IC50” value was 0.00775 µg/mL. For B4, the “pseudovirus neutralization IC50” value was greater than 1 µg/mL. With B5 the “pseudovirus neutralization IC50” value was 0.215 µg/mL. With B6 the “pseudovirus neutralization IC50” value was 0.245 µg/mL. B7 was tested, and the “pseudovirus neutralization IC50” value was greater than 1 µg/mL.

The binders below were run against SARS-CoV-2 Wuhan-Hu-1 spike pseudovirus (assay: pseudovirus neutralization IC90; higher = weaker neutralization).
Experimental: as §1
B1 was tested, and the “pseudovirus neutralization IC90” value was greater than 1 µg/mL. B2 was tested, and the “pseudovirus neutralization IC90” value was 0.804 µg/mL. With B3 the “pseudovirus neutralization IC90” value was 0.424 µg/mL. For B4, the “pseudovirus neutralization IC90” value was greater than 1 µg/mL. For B5, the “pseudovirus neutralization IC90” value was greater than 1 µg/mL. In the case of B6, the “pseudovirus neutralization IC90” value is reported as greater than 1 µg/mL. B7 was tested, and the “pseudovirus neutralization IC90” value was greater than 1 µg/mL.

What follows are binders tested against SARS-CoV-2 Delta (B.1.617.2) spike RBD (assay: ELISA binding EC50; higher = weaker binding; ELISA of recombinant human antibody on coated antigen, from 10 µg/ml in fourfold dilutions; four-parameter fit.).
With B1 the “ELISA binding EC50” value was 0.0225 µg/mL. With B2 the “ELISA binding EC50” value was 0.0235 µg/mL. With B3 the “ELISA binding EC50” value was 0.0122 µg/mL. With B4 the “ELISA binding EC50” value was 0.0137 µg/mL. B5 was tested, and the “ELISA binding EC50” value was 0.552 µg/mL. With B6 the “ELISA binding EC50” value was 0.0311 µg/mL. With B7 the “ELISA binding EC50” value was 0.0155 µg/mL.

These binders were tested against SARS-CoV-2 Omicron BA.1 spike protein in the same assay as above.
B1 was tested, and the “ELISA binding EC50” value was 0.0882 µg/mL. For B2, the “ELISA binding EC50” value was greater than 1 µg/mL. B3 was tested, and the “ELISA binding EC50” value was greater than 1 µg/mL. For B4, the “ELISA binding EC50” value was 0.00343 µg/mL. For B5, the “ELISA binding EC50” value was 0.0902 µg/mL. B6 was tested, and the “ELISA binding EC50” value was 0.0127 µg/mL. B7 was tested, and the “ELISA binding EC50” value was 0.0463 µg/mL.

The binders below were run against SARS-CoV-2 Wuhan-Hu-1 spike receptor-binding domain in the same assay as above.
With B1 the “ELISA binding EC50” value was 0.00306 µg/mL. For B2, the “ELISA binding EC50” value was 0.00336 µg/mL. For B3, the “ELISA binding EC50” value was 0.00242 µg/mL. In the case of B4, the “ELISA binding EC50” value is reported as 0.00479 µg/mL. B5 was tested, and the “ELISA binding EC50” value was 0.0069 µg/mL. For B6, the “ELISA binding EC50” value was 0.00244 µg/mL. For B7, the “ELISA binding EC50” value was 0.00769 µg/mL.
